Test results taken from PMC4336329 (PLoS ONE, 2015).
Out of some 310,000 compounds screened, about 14,000 (4.5%) showed an effect of 50% or more. The effect is printed as a negative number. The list shows a part of the results.

biological target: human ether-à-go-go-related gene (hERG) potassium channel (human, UniProt Q12809); experiment: primary screen, population patch clamp on CHO cells stably expressing hERG
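Also: peak tail current of the secondary pulse compared with the same well before compound.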

Chain of human ether-à-go-go-related gene (hERG) potassium channel (Q12809 whole entry, looked up): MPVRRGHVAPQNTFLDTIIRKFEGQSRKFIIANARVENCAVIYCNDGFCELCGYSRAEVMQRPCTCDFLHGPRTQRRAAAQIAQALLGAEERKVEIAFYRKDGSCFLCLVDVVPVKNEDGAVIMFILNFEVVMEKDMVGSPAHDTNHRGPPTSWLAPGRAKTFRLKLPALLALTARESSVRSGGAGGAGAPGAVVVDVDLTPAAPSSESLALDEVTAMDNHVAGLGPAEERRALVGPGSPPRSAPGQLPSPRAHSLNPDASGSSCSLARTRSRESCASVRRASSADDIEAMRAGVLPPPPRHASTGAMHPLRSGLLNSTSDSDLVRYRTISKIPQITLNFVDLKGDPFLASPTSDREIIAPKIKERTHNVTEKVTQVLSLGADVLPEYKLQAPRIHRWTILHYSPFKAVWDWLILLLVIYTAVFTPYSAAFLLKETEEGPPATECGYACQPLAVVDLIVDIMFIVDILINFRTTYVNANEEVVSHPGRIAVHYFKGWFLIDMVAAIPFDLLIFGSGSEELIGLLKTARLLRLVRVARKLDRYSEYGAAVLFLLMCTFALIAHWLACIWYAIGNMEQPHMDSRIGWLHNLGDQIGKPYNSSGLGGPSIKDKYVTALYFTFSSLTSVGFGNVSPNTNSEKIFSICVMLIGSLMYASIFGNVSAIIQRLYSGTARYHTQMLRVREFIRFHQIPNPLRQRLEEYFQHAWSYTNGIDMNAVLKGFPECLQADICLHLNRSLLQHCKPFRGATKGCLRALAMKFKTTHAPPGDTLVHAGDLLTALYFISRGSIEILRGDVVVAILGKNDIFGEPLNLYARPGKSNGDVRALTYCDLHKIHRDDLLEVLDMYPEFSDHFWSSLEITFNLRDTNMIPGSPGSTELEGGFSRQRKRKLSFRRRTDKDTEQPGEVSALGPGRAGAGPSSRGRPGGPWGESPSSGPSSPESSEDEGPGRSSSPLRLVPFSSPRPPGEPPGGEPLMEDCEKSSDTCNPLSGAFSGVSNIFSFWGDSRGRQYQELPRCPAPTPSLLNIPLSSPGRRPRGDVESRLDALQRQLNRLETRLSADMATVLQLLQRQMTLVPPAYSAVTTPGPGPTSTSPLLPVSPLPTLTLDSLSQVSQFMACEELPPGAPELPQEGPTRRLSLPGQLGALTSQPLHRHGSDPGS

Row | SMILES | hERG current change (%, negative = inhibition) at 10uM
1 | O=S(=O)(NCCOc1cccc2cccnc12)c1ccc(F)cc1 | -14.6%
2 | Cl.c1ccc(CSc2nnc([C@@H]3CCCN3)o2)cc1 | -2.43%
3 | FC(F)(F)c1ccc(NC(=S)NC2CCCCC2)cc1 | 22.7%
4 | O=C(COC(=O)c1ccccc1S(=O)(=O)N1CCCCC1)NCC(F)(F)F | -21.4%
5 | CCCC[C@@H]1CNC(=O)C(=O)N1CC(C)(C)C | -0.819%
6 | COC(=O)CC1C(=O)NCCN1C(=O)Nc1ccc(Cl)cc1 (stereo not shown) | 14.5%
7 | NNC(=O)Cn1c(SCc2ccccc2)nc2ccccc21 | 3%
8 | Cc1ccc(S(=O)(=O)N(CCC#N)C2CCCCC2)c2nsnc12 | -21.9%
9 | O=S(=O)(/N=C(/Nc1cccc2ccccc12)c1ccc(F)cc1)c1ccccc1 | -42.8%
10 | Cc1cc(C)cc(NC(=O)CCN2CCOCC2)c1 | 3.56%
11 | CCc1cccc(OCCCCNCCO)c1.O=C(O)C(=O)O | 10.8%
12 | S=c1[nH]ncn1/N=C/c1cccc(Oc2ccccc2)c1 | 6.75%
13 | COc1ccc2[nH]c3c(=O)n(CCCCC(=O)NCCN4CCCC4)c(=S)[nH]c3c2c1 | 12.8%
14 | Cc1cccc(Nc2nc(-c3ccc(O)c(O)c3)cs2)n1 | 14.7%
15 | Cc1ccc(SCC(=O)N2CCN(c3ccccn3)CC2)cc1 | -10.2%
16 | CN1CCN(C(=O)Nc2ccc3c(c2)N(C)C(=O)c2ccccc2S3)CC1 | 8.57%
17 | Cc1c(C(=O)OCC2CCCO2)[nH]c2c1C(=O)CC(c1ccc(N(C)C)cc1)C2 (stereo not shown) | -6.95%
18 | O=C(CSc1nc(O)cc(=O)[nH]1)N1c2ccccc2Sc2ccccc21 | 8.9%
19 | COc1cc(NC(=O)CCc2nnc3ccc(N4CCN(C)CC4)nn23)cc(OC)c1 | 25.2%
20 | O=C(Nc1nnc(C2=COCCO2)o1)c1ccc([N+](=O)[O-])cc1 | 14%

Row | SMILES | hERG current change (%, negative = inhibition) at 10uM
21 | O=C(CSc1ccc(Cl)cc1)N1CCCC1 | 16.6%
22 | O=S(=O)(Nc1ccc(-c2csc(-c3ccccc3)n2)cc1)c1ccccc1 | -10.7%
23 | CSCC[C@H](NC(=O)Cc1c(C)c2c(cc(C)c3c(C)c(C)oc32)oc1=O)C(=O)O | 0.0578%
24 | CC(=O)N1c2ccc(S(=O)(=O)N(C)CC(=O)NCc3ccccc3)cc2CC1C (stereo not shown) | 3.67%
25 | CCN1C(=O)c2cccc3c(S(=O)(=O)NCc4ccccn4)ccc1c23 | -13.9%
26 | CC(=O)N1c2ccc(S(=O)(=O)N3c4ccccc4CC3C)cc2CC1C (stereo not shown) | -38.3%
27 | O=C(Cn1cncn1)NCc1cccc(OC(F)F)c1 | 7.23%
28 | Cc1ccc(C(=O)NCCNC(=O)c2ccc(C)o2)o1 | 10.1%
29 | CC1(C)CC(=O)C2=C(C1)N(CC1CCCO1)C(=O)NC2(C(F)(F)F)C(F)(F)F (stereo not shown) | -2.44%
30 | CCCC(=O)Nc1sc(-c2ccccc2)c(-c2ccccc2)c1C(=O)O | 8.15%
31 | CCC(C)(C)n1nnnc1CN(Cc1ccc(Cl)cc1)Cc1ccco1 | -2.97%
32 | CCc1ccc(/C(C)=N/NC(=O)CNC(=O)/C=C/c2ccccc2OC)cc1 | 8.52%
33 | COc1ccccc1OCCC(=O)OCC(=O)NC(=O)NC(C)(C)C | 0.403%
34 | O=S(=O)(c1ccc2ccccc2c1)N1CCCCC1 | -14%
35 | CCn1c(-c2cccn(Cc3ccccc3)c2=O)n[nH]c1=S | 20.6%
36 | Cc1ccc(/C=C/C(=O)NCc2cccs2)cc1 | -1.23%
37 | O=C(Cc1cccs1)OCC(=O)c1ccco1 | 16.3%
38 | COc1ccccc1N(C(=O)c1ccco1)C(C(=O)NC1CCCC1)c1ccncc1 (stereo not shown) | 6.08%
39 | NC1=[NH+]C2CS(=O)(=O)CC2S1.[Br-] (stereo not shown) | -17.6%
40 | Cc1nn(CC(=O)NC2C(=O)N3C(C(=O)O)=C(CSc4nnnn4C)CSC23)cc1Br (stereo not shown) | 24.2%

Row | SMILES | hERG current change (%, negative = inhibition) at 10uM
41 | CC(C)(O)C#Cc1ccc(C(=O)NCCc2ccc(S(N)(=O)=O)cc2)cc1 | 13.6%
42 | O=C(c1ccco1)N1CCN(C(=O)c2ccc(COc3ccc4c(c3)CCC4)o2)CC1 | -69%
43 | O=C(c1ccc(Cl)c([N+](=O)[O-])c1)N1CCN(S(=O)(=O)c2ccc(Cl)cc2)CC1 | -11.3%
44 | COc1ccc(C(O)c2ccccc2OP(=O)(N(C)C)N(C)C)cc1 (stereo not shown) | -8.1%
45 | CCN(CC)CCNc1nc2ccccc2n1C | -1.77%
46 | Cc1ccccc1CN1C(=O)CS/C1=N/N=C/c1ccco1 | -14.1%
47 | CCOc1ccc(OCC)c(NC(=O)Cn2c(C)nc3ccccc3c2=O)c1 | -34%
48 | CCOC(=O)C(C)On1c(-c2ccc(Cl)cc2)nc2ccc([N+](=O)[O-])cc21 (stereo not shown) | -20.4%
49 | CCn1nnnc1SCC(=O)c1ccc2c(c1)OCCO2 | 19.6%
50 | O=C(Nc1cccc(NC(=O)c2ccccc2Cl)c1)c1ccc([N+](=O)[O-])o1 | -16.4%
51 | Cc1ccc(C2NC(=O)c3c(sc4c3CCN(C)C4)N2)s1 (stereo not shown) | -36.8%
52 | CCOc1cc(C(=O)N(C)Cc2cc3ccccc3[nH]c2=O)cc(OCC)c1OCC | -0.586%
53 | CN(CC(=O)Nc1ccccc1C(F)(F)F)C(=O)c1cc(Cl)nc2ccccc12 | -5.24%
54 | COc1cccc(CNCCSc2nnnn2C)c1.Cl | 1.03%
55 | O=C1c2ccccc2NC(c2ccco2)N1/N=C/c1ccco1 (stereo not shown) | 9.48%
56 | O=[N+]([O-])c1ccc(Nc2nc(N3CCOCC3)nc(N3CCOCC3)n2)cc1 | -1.98%
57 | CCc1ccc(CNCc2cccs2)cc1.Cl | -22.9%
58 | Cl.O=C(CN1CCOCC1)NCc1cc([N+](=O)[O-])ccc1O | 16.5%
